Experimental data published in the RNAGym collection of RNA variant scans (doi:10.1073/pnas.2313332121).
Variants at the background level are over-represented here.

B1: TPR 5TU (parent)
chain: GGAUCUUCUCGAUCUAACAAAAAAGACAAAUCUGCCACAAAGCUUGAGAGCAUCUUCGGAUGCAGAGGCGGCAGCCUUCGGUGGCGCGAUAGCGCCAACGUUCUCAACUAUGACACGCAAAACGCGUGCUCCGUUGAAUGGAGUUUAUCAUG

Variants of: B1
Assay: polymerase ribozyme fitness, log enrichment relative to wild type (log ratio); higher = more active; in vitro selection for triplet polymerase activity
In short: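 Streptavidin-bead capture of gel-excised extended constructs, followed by RT-PCR, closed a single triplicate in vitro selection round. That round began by annealing PCR-built, transcribed mutant libraries of each subunit of a heterodimeric triplet polymerase ribozyme with a biotinylated primer, the partner subunit and triplets, then incubating them frozen at −7 °C. After Illumina sequencing of inputs and outputs, genotypes needed ≥10 input reads and ≥1 read per output. Fitness is the base-2 logarithm of genotype enrichment over wild-type enrichment, using inverse-variance-weighted replicate averages.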

Row | Variant | polymerase ribozyme fitness (log ratio)
1 | GGAUCUUCUCGAUCUAACAAAAAAGACAAAUCUGCCACAAAGCUUGAGAGCGUUUUCGGAGGCAGAGGCGGCAUCCUUCGGUGGCGCGAUAGCGCCAACGUUCUCAAUUAUGACACGCAAAACGCGUGCUUCGUUGAAUGGAGUUUAUCAUG [A52G C54U U61G G74U C108U C131U] | ≤ -4.2
2 | GGAUCUUCUCGAUCUAACAAAAAAGACAAAUCUGCCACAAAGCUUGAGAGCGUCUUCGGAUGCAGAGGCGGCAGCCUUCGGUGGUUCGAUAGCGCCAACGUUCUCAACUAUGACACGGAAAACGCGUGCUCCGUUGAAUGGAGCUUAUGAUG [A52G C85U G86U C118G U144C C149G] | ≤ -4.2
3 | GGAUCUUCUCGAUCUAACAAAAAAGACAAAUCUGCCACAAAGCUUGAGAGCGUCUUCGGAUGCAGAGGCGGCAGACUUCGGUGUCGCGAUAGCGCCAACGUUCUCAACUUUGACACGCAAAACGCGUGCUCCGUUGAAUGGAGUUUAUCAUG [A52G C75A G84U A110U] | ≤ -4.2
4 | GGAUCUUCUCGAUCUAACAAAAAAGACAAAUCUGCCACAAAGCUUGAGAGCCACUUCGGAUGCAACGGCGGCAGCCUUUGGUGGCGCGAUAGCGCCAACGUUCUCAACUAUGACACGCAAAACGCGUGCUCCGUUGAAUGGAGUUUAUUAUG [A52C U53A G65A A66C C79U C149U] | ≤ -4.2
5 | GGAUCUUCUCGAUCUAACAAAAAAGACAAAUCUGCCACAAAGCUUGAGAGCGUCUUAGGAUGCAGAGGCGGCAGCCUUCGGUUGCGCGAUGGCGACAACGUUCUCAACUAUGACACGCAAAACGCGUGCUCCGUUGAAUGGAGUUUAUCAUG [A52G C57A G83U A91G C95A] | -4.15
6 | GGAUCUUCUCGAUCUAACAAAAAAGACAAAUCUGCCACAAAGCUUGAGAGCCUCUUCGGAAGCAGAGGCGGCAGCUUUCGGUGGCGCGAUAGUGCCGACGUUCUCAACUAUGACACGCAAAACGCGUGCUCCGUUGAAUGGAGUUUAUAAUG [A52C U61A C76U C93U A97G C149A] | ≤ -4.2
7 | GGAUCUUCUCGAUCUAACAAAAAAGACAAAUCUGCCACAAAGCUUGAGAGCGUCUUCGGAUGCAGAGGCGGCAGCCUUCGGUGGCGCGAUAGGGCCAACGUUCUCAACUAUGACGCGCCAAACGCGUGCUCCGUUGAAUCGAGUUUAUCAUG [A52G C93G A115G A119C G140C] | ≤ -4.2
8 | GGAUCUUCUCGAUCUAACAAAAAAGACAAAUCUGCCACAAAGCUUGAGAGCGUCUUCGGAUGCAGAGGCGGCAGCCUUCGGUGGCGCGAUAGCGCCAACGUUCUCACCUAUGACACGCAAAACGCGUGCUCCGUUGAAUGGAGUUUAUCAUG [A52G A107C] | -3.09
9 | GGAUCUUCUCGAUCUAACAAAAAAGACAAAUCUGCCACAAAGCUUGAGAGCGUCUUCGGAUGCAGAGGCGGCAGCCUUCGGUGGCGCGAUAGCGCCAACGUUCUCAUCUAUGACACGCAAAACGCGUGCUCCGUUGAAUGGAGUUUAUCAUG [A52G A107U] | -3.56
10 | GGAUCUUCUCGAUCUAACAAAAAAGACAAAUCUGCCACAAAGCUUGAGAGCCUCUUCGGAUGCAGAGGCGGCAGCCUUCGGUGGCUUGAUAGCGCCAACGUUCUCAACUAUGUCACGCAAAACGCGUGCUCCGUUGAAUGCAGUUUAGCAUG [A52C G86U C87U A113U G141C U148G] | ≤ -4.2
11 | GGAUCUUCUCGAUCUAACAAAAAAGACAAAUCUGCCACAAAGCUUGAGAGCGUCUUCGGAUGCAGAGGCGGCCGCCUUCGGUGGCGAGAUAGCGCCAACGUUCUCAACUAUGAAACGCAAAACGCGUGCUCCGUUGAAUGGAGUUUAUCAUG [A52G A73C C87A C114A] | ≤ -4.2
12 | GGAUCUUCUCGAUCUAACAAAAAAGACAAAUCUGCCACAAAGCUUGAGAGCCUCUUCGGAUGCAGAGGCGGCAGCCUUCGGUGGCGCGAUAUCGCCAACGUUCUCAACUAUGACACGCAAAACGCGUGCUCCGUUGAAUGGAGUUUAUCAUU [A52C G92U G152U] | -3.32
13 | GGAUCUUCUCGAUCUAACAAAAAAGACAAAUCUGCCACAAAGCUUGAGAGCGUCUUCGGAUGCAGAGGCGGCAGCCUUCGGUGGCGAGAUAGCGCCAACGUUCUCAACUAUGACACGCAAAACACGUGCUCCGUUGAAUGGAGUUUAUCAUG [A52G C87A G124A] | ≤ -4.2
14 | GGAUCUUCUCGAUCUAACAAAAAAGACAAAUCUGCCACAAAGCUUGAGAGCCUCUUCGGAUGCAGAGGCGGCAGCCUUCGGUCGCGUGAUAGCGCCAACGUUCUCAACUAUGACACGCAAAGCGCGUGCUCCGUUGAAUGGAGUUUAUCAUG [A52C G83C C87U A122G] | ≤ -4.2
15 | GGAUCUUCUCGAUCUAACAAAAAAGACAAAUCUGCCACAAAGCUUGAGAGCGUCUUCGGAUGCAGAGGCGGCAGCCUUAGGUGGCUCGAUAGCGCCAACGUUCUCAACUAUGACACGCAAAAUGCGUGAUCCGUUGAAUGGAGUUUAUCAUG [A52G C79A G86U C123U C129A] | ≤ -4.2
16 | GGAUCUUCUCGAUCUAACAAAAAAGACAAAUCUGCCACAAAGCUUGAGAGCGUCUUCCGAUGCAGAGGCGGCAGCCUUCGGUGGCGCGAUAGCGCCAACGUUCUCAUCUAUGACACCCAAAACGCGUGCUCCGUUGAAUGGAGUUUAUCAUG [A52G G58C A107U G117C] | ≤ -4.2
17 | GGAUCUUCUCGAUCUAACAAAAAAGACAAAUCUGCCACAAAGCUUGAGAGCCUCUUCGGAUGCAGAGGCGGCAGCCUUCGGUUGCGCGAUAGCGCCAACGUUCUCAACUAUGACACGCAAAACGCGUGCUCCGUUGAAUGGAGUUUAUCAUG [A52C G83U] | -2.01
18 | GGAUCUUCUCGAUCUAACAAAAAAGACAAAUCUGCCACAAAGCUUGAGAGCCUCAUCGUAUGCAGAGGCGGCAGCCUUCGGUGGCGCGAUAGCGCCAACGUUCUCAACUAUGACACGCAAAACGCGUGCUCCGUUGAAUGGAGUUUAUCAUG [A52C U55A G59U] | 0.0736
19 | GGAUCUUCUCGAUCUAACAAAAAAGACAAAUCUGCCACAAAGCUUGAGAGCCUCUUCGGAUGCAGAGGCGGCAGCCGUUGGUGGCGAGAUAGCGUCAACGUUCUCAACUAUGACACGCAAAACGCGUGCUCCGUUGAAUGGAGUUUAUCAUG [A52C U77G C79U C87A C95U] | ≤ -4.2
